According to PMC10313165, “Imaging single CaMKII holoenzymes at work by high-speed atomic force microscopy” (Science Advances, 2023):
Values belong to the binder of their own block, whether it stands above or below them.

Key:
[1] = target: T1, rat calmodulin, 6xHis-tagged (Ca^2+-bound in the assays) (rat (Rattus norvegicus), UniProt P0DP29); experiment: high-speed atomic force microscopy; 50 nM CaMKII and 800 nM CaM premixed in buffer B with 1 mM CaCl2 and 1 mM ATP, 30 °C, 5 min; imaged in buffer A with 1 mM CaCl2 and 1 mM ATP on pillar[5]arene-modified mica, 24-26 °C; details: both partners purified
T1 construct: calmodulin, rat (Rattus norvegicus), synthesized gene (Eurofins) in the pRSET vector; Used at 800 nM with 1 mM CaCl2; also called CaM; Ca^2+/CaM; source: E. coli (DH5α), purified (Ni-NTA column)

[2] = target: the molecule itself; experiment: high-speed atomic force microscopy; single holoenzyme particles on mica modified with cationic pillar[5]arene; buffer A (50 mM tris-HCl pH 7.4, 15 mM KCl, 10 mM MgCl2, 10% glycerol) with the additives of each state; 24-26 °C; kinase domains seen around a central hub assembly

binding result [1]: binds
B1: rat CaMKIIα T286A holoenzyme (enzyme)
chain: not shown
notes: CaMKIIα, rat (Rattus norvegicus), […], with T286A; source: HEK293, transfected, purified (Strep-Tactin Sepharose, then NTA column)
binding result [2]: binds

B2: rat CaMKIIα T305A/T306V holoenzyme (not phosphorylated) (enzyme)
chain: not shown
notes: CaMKIIα, rat (Rattus norvegicus), […], with T305A and T306V; source: HEK293, transfected, purified (Strep-Tactin Sepharose, then NTA column)
binding result [2]: binds

binding result [1]: binds
B3: pT286 rat CaMKIIα T305A/T306V holoenzyme (enzyme)
chain: not shown
modifications: phosphothreonine at 286 (pT286)
notes: CaMKIIα, rat (Rattus norvegicus), […], with T305A and T306V; also called CaMKIIα_(T305A/T306V) + ATP; source: HEK293, transfected, purified (Strep-Tactin Sepharose, then NTA column); treated with Ca^2+/CaM and 1 mM ATP
binding result [2]: binds
